According to PubChem BioAssay AID1347165 (National Center for Advancing Translational Sciences (NCATS), 2019):
Among all 220,000 compounds or so, about 5,700 (2.6%) were called active. The inconclusive results got no clear call from the source; some entries with a clear call stand among them for comparison. The call rests on the fitted dose curve; in most records, active means well fitted inhibition curve with a large enough effect; inconclusive means small, poorly fitted or top-dose-only effect; inactive means no such curve, though single readings can be large or run the other way. Potencies beside an inconclusive call are fits to weak or partial responses and may not hold up.

Target: Lysine-specific demethylase 5B (Homo sapiens) (UniProt Q9UGL1)
UniProt Q9UGL1, sequence (Q9UGL1 whole entry, looked up): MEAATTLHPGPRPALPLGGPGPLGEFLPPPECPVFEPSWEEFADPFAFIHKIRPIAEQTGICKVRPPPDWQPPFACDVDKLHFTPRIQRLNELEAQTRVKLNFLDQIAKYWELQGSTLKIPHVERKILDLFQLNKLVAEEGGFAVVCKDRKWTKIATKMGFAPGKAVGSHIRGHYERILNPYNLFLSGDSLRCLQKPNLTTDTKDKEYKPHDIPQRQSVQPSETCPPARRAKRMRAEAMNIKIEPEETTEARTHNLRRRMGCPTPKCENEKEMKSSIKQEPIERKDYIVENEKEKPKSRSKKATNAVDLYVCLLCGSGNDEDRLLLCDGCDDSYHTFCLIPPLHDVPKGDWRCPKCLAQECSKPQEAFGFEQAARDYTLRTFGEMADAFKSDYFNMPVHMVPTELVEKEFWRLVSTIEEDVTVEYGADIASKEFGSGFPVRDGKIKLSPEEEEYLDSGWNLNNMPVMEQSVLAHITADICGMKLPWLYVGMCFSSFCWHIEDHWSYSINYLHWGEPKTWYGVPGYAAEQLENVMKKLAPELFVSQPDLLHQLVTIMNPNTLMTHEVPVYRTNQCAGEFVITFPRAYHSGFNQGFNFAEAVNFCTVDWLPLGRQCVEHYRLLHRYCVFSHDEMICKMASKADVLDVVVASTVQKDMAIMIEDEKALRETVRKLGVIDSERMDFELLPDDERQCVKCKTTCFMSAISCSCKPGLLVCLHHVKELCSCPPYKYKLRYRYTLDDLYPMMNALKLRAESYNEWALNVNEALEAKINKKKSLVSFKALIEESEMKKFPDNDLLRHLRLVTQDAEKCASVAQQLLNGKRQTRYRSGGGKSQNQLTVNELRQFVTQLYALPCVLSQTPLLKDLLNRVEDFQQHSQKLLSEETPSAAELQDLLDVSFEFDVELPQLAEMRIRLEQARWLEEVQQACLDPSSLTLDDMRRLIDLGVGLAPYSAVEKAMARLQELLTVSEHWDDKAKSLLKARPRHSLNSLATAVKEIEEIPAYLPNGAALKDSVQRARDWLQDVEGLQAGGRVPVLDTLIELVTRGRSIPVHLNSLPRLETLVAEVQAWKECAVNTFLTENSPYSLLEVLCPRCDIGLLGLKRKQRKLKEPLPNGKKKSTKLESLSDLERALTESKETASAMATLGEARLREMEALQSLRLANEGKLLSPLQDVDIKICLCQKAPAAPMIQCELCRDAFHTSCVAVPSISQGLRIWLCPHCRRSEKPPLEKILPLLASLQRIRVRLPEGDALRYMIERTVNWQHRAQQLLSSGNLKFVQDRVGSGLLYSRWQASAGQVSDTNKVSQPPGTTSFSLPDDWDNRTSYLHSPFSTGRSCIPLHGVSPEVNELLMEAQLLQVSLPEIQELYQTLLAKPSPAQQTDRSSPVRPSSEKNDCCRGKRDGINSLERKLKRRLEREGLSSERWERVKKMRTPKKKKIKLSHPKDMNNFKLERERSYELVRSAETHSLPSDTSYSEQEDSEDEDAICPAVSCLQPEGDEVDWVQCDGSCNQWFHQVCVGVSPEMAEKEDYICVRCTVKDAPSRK
Assay: Primary screen for KDM5B Histone Demethylases FDH-coupled qHTS; further: nearly all actives have a fitted effect of over 70% in size; on activity change, negative = inhibition: 0% is about no effect
Settings: FDH-coupled NADH fluorescence (FDH is formaldehyde dehydrogenase); activity change, negative = inhibition: at 57.7 µM (top of the series) unless noted
In short: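 KDM5BΔAP (200 nM final) in 50 mM HEPES pH 7.5, 0.01% Tween-20 was preincubated 10 min at RT with compound over a concentration range. Substrate mix (H3K4me3 12.5 µM, α-KG 25 µM, Fe²⁺, ascorbate, NAD⁺, FDH) was added, and NADH fluorescence change over 30 min gave dose-response curves.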
Potency means the concentration at half of the fitted maximal effect; tags describe the fitted curve by direction and shape.

SMILES	Potency	activity change, negative = inhibition
CCc1c(C)sc2c1CCN(C(=O)Nc1ccccc1C(=O)OC)C2c1ccc(OC)cc1 (stereo unspecified)	inconclusive: 2.51 µM [inhibitor, partial curve, poor fit]	–
Cc1ccc(NS(=O)(=O)c2ccc3c(c2)CC(=O)N3)cc1Cl	inconclusive: 17.8 µM [inhibitor, partial curve, poor fit]	–
CC(C)(C)NC(=O)NC(=O)COC(=O)c1cc(-c2cccs2)nc2ccccc12	inconclusive: 35.5 µM [inhibitor, partial curve, poor fit]	–
CC(C)c1ccc(-n2cc(CN3CCCC(O)(CN(C)C)C3)cn2)cc1 (stereo unspecified)	inactive	–
O=C(Nc1ccc2cc[nH]c2c1)c1csc(NC2CC2)n1	inactive	–
CCOc1ccc(Br)cc1C1C(C(=O)OC)=C(C)NC2=C1C(=O)c1ccccc12 (stereo unspecified)	inconclusive: 0.891 µM [inhibitor, full curve, poor fit]	–
CCNC(=O)C1CCCN(C(=O)CCc2c(C)c3ccc(OC)cc3oc2=O)C1 (stereo unspecified)	inconclusive: 12.6 µM [inhibitor, partial curve, poor fit]	–
CC(C)(C)n1ccc(C(=O)N2CCN(CC3CC3)[C@@H]3CS(=O)(=O)C[C@@H]32)c1	inconclusive: 31.6 µM [inhibitor, partial curve]	–
O[C@@H]1C[C@@H](c2nnc3n2CCN(CC2CCCCC2)C3)N(Cc2ccccc2)C1	inactive	–
CCC(C(=O)Nc1cccc(OC)c1)n1nnc(C(=O)OC)c1C(=O)OC (stereo unspecified)	inactive	–
COc1ccc(-c2ccc3c(N)c(C(=O)Nc4ccc(C(F)(F)F)cc4)sc3n2)cc1OC	inconclusive: 4.47 µM [inhibitor, partial curve, poor fit]	–
Cc1cc(C)cc(-n2ncc3c2NC(=O)CC32C(=O)Nc3ccc(C(C)C)cc32)c1 (stereo unspecified)	inactive	–
Cc1cccc(OCC(=O)N2CCC3(CC2)CN(c2ccncn2)CC3CO)c1 (stereo unspecified)	inactive	–
COc1ccc(CCNC(=O)c2cc3cn(C(C)C)cc3s2)cc1OC	inconclusive: 7.08 µM [inhibitor, partial curve, poor fit]	–
Cc1cccc(C(=O)N/C(=C/c2ccco2)C(=O)O)c1	inconclusive: 25.1 µM [inhibitor, single point]	–
COc1ccc(-c2nccc3c(=O)cc(N4CCN(C)CC4)oc23)cn1	active: 31.6 µM	–
Cc1cccc(OCCc2noc(C3CCCCN3Cc3cccnc3)n2)c1 (stereo unspecified)	inactive	–
CC(NC(=O)/C=C/c1ccc(Cl)cc1)c1ccc(NC(N)=O)cc1 (stereo unspecified)	inactive	–
COc1ccc(-c2nnc(SCC(=O)NCCc3ccc(OC)c(OC)c3)nc2-c2ccc(OC)cc2)cc1	inconclusive: 0.708 µM [inhibitor, partial curve, poor fit]	–
CC(C)CNc1ccc2c(n1)C(C)(C(=O)NCc1cccnc1)CN(Cc1ccccc1)C2 (stereo unspecified)	inconclusive: 39.8 µM [inhibitor, single point]	–
Cc1ccc(C)c(N2CCN(S(=O)(=O)c3cc(-c4cc(C)no4)ccc3C)CC2)c1	inconclusive: 35.5 µM [inhibitor, single point]	–

SMILES	Potency	activity change, negative = inhibition
CSc1ccc(CCNC(=O)c2cc(C)nc3c2c(C)nn3-c2ccccc2)cc1	inconclusive: 39.8 µM [inhibitor, single point]	–
N#Cc1nc(-c2ccc(OCc3ccccc3)cc2)oc1NCCCN1CCOCC1	inconclusive: 1.78 µM [inhibitor, partial curve, poor fit]	–
COc1ccc(Cl)cc1-c1ccc2c(c1)C(=O)N1CC[C@H](N)[C@H]1C(=O)N2	inconclusive: 28.2 µM [inhibitor, single point]	–
Cc1ccc(CN2CCCCCNC(=O)[C@@H]3CCC[C@@H]32)o1	inconclusive: 12.6 µM [inhibitor, partial curve, poor fit]	–
O=C(N[C@H]1CCN2C(=O)c3cc(-c4cccs4)ccc3NC(=O)[C@H]12)c1cnccn1	inconclusive: 39.8 µM [inhibitor, partial curve, poor fit]	–
Cc1ccc(CNC(=O)c2ccccc2NS(=O)(=O)c2ccc(Cl)nc2)cc1	inconclusive: 25.1 µM [inhibitor, partial curve, poor fit]	–
Cc1ccc(-n2nc3ccc(NC(=O)COc4ccccc4C)cc3n2)cc1	inconclusive: 1.58 µM [inhibitor, full curve, poor fit]	–
Fc1cccc(-c2cnc([C@@H]3COCCN3Cc3ccccc3)[nH]2)c1	inconclusive: 39.8 µM [inhibitor, partial curve, poor fit]	–
CN1CCC2(C1)CN(CC1CCOCC1)c1ccc(C(=O)Nc3ccccc3)cc12 (stereo unspecified)	inconclusive: 31.6 µM [inhibitor, partial curve]	–
C=CC[n+]1c(C)ccc2ccc(C)cc21	inconclusive: 31.6 µM [inhibitor, partial curve, poor fit]	–
COc1cc(CCC(=O)NCc2ccc3c(c2)CCN3C(=O)c2ccccc2)cc(OC)c1OC	inconclusive: 15.8 µM [inhibitor, partial curve, poor fit]	–
Nc1c(N(Cc2ccco2)C(=O)c2cccc(Cl)c2)c(=O)[nH]c(=O)n1Cc1ccccc1	inconclusive: 12.6 µM [inhibitor, partial curve, poor fit]	–
O=C(Nc1nc2ccccc2[nH]1)c1cc(F)cc(F)c1	inconclusive: 39.8 µM [inhibitor, single point]	–
CCOC(=O)c1c(C)[nH]c(C(=O)C(C)Nc2ccccc2OC)c1C (stereo unspecified)	inactive	–
O=C(O)CCCN1CCCCCC1	inactive	–
Cc1ccc(C(=O)COc2cccn3c(=O)c(-c4cc(C)n(-c5ccccc5)n4)c(C)nc23)cc1	inconclusive: 28.2 µM [inhibitor, partial curve, poor fit]	–
COCc1cc(=O)n(CC(=O)NCc2ccc(OC)cc2)c(N2CCOCC2)n1	inconclusive: 15.8 µM [inhibitor, partial curve]	–
CCCCCNc1ncnc2c1CN(C1CCCNCC1)C(=O)CN2C (stereo unspecified)	inconclusive: 50.1 µM [inhibitor, partial curve, poor fit]	–
O=C(Nc1ccc(S(=O)(=O)N2CCCC2)cc1)C1CCCN(C(=O)c2ccc(Cl)cc2)C1 (stereo unspecified)	inactive	–
Cc1cc2cc(-c3c(C)noc3C)nc(-c3ccnn3C)c2o1	inconclusive: 31.6 µM [inhibitor, single point]	–
O=Cc1ccc(Sc2ccc(Cl)cc2)cc1	inconclusive: 39.8 µM [inhibitor, single point]	–

SMILES	Potency	activity change, negative = inhibition
COCC(=O)N[C@H]1CO[C@H]2[C@@H]1OC[C@@H]2Nc1nccc(-c2cccc(F)c2)n1	active: 35.5 µM	–
CCOc1ccc(C(C(=O)NCC2CCCO2)N(Cc2cccc(OC)c2)C(=O)c2snc(C(N)=O)c2N)cc1 (stereo unspecified)	inconclusive: 14.1 µM [inhibitor, partial curve, poor fit]	–
O=C(NCCc1noc(-c2ccccc2)n1)c1n[nH]c2ccccc12	inconclusive: 35.5 µM [inhibitor, single point]	–
O=C(NCCC1=CCCCC1)c1ccc2c(c1)N(Cc1cccc(Cl)c1)C(=O)c1ccccc1S2=O (stereo unspecified)	–	inconclusive: -35.5% [inhibitor]
CCOC(=O)c1cn2nc(Oc3ccc(C#N)cc3)ccc2n1	inconclusive: 25.1 µM [inhibitor, partial curve, poor fit]	–
CN1CCOc2c(C(=O)NCCc3cnc[nH]3)cc(-c3ccccc3F)cc21	active: 31.6 µM	–
C[C@H]1[C@@H]2[C@@H](O)C([C@H](C)C(=O)N3CCCC3)CC[C@@]2(C)CC[C@@H]1NC(=O)c1ccccc1 (stereo partly specified)	inconclusive: 35.5 µM [inhibitor, single point]	–
CCOC(=O)c1ccc(Oc2c(C(F)(F)F)oc3cc(OC(=O)c4ccc(F)cc4)ccc3c2=O)cc1	inactive	–
CSc1ccc(/C=C(/C#N)C(=O)NC2CCCC2)cc1	inconclusive: 20 µM [inhibitor, single point]	–
CCN(CC)S(=O)(=O)c1ccc(OC)c(-n2cnnn2)c1	inactive	–
CCOc1ccc(NC(=O)c2ccc3c(c2)N(C)C2CCCCCN2C3=O)cc1 (stereo unspecified)	inconclusive: 28.2 µM [inhibitor, partial curve, poor fit]	–
CCOC(=O)c1cc2c(=O)n3ccccc3nc2n(CCOC)c1=NC(=O)c1c(-c2ccccc2Cl)noc1C	inconclusive: 2 µM [inhibitor, partial curve, poor fit]	–
COc1cccc(-n2c(=O)c3sc4ccccc4c3n(CC(=O)NC3CCCCC3)c2=O)c1	inconclusive: 3.55 µM [inhibitor, partial curve, poor fit]	–
COc1cccc(-c2n[nH]c3c2CC(=O)N(Cc2ccccc2)C3)c1OC	inconclusive: 28.2 µM [inhibitor, partial curve, poor fit]	–
C[C@H](C(=O)N1CCCC1)[C@@H]1CC[C@@]2(C)Cc3sc(-c4ccsc4)nc3[C@@H](C)[C@@H]2[C@H]1O	inconclusive: 31.6 µM [inhibitor, single point]	–
CC(=O)Nc1cccc(-c2cc(-c3ccncc3)c3cncn3c2)c1	inactive	–
Cc1c(NC(=O)c2ccc(-c3cccc([N+](=O)[O-])c3)o2)cccc1-c1nc2cc(Cl)ccc2o1	inconclusive: 3.16 µM [inhibitor, full curve, poor fit]	–
COc1ccc(-c2nc(C)c(CCNS(=O)(=O)c3cc(Cl)ccc3Cl)s2)cc1	inconclusive: 31.6 µM [inhibitor, partial curve, poor fit]	–
O=C(Cc1cccnc1)N1CCC(Oc2ccccc2-c2nc(C3CC3)no2)C1 (stereo unspecified)	inconclusive: 35.5 µM [inhibitor, partial curve, poor fit]	–
